# Measured values taken from the supplement of paper PMC11880418.
# Structures can show the parent of a compound that is named as a salt. The list shows a part of the results. The data scatter; read single values as rough.
# Experiments:
# Test in all cases: ALDHbr (CSC) cell proportion score relative to DMSO vehicle (ratio to DMSO); breast (SUM159) / gastric (MKN45) / pancreatic (PANC1) / colon cancer lines; ALDHbr cells have high ALDH activity and are rich in cancer stem cells (CSC); higher = more CSC (ALDHbr) cells remaining
# Conditions in all cases: 10 µM; 72 h
# [1] = tested on: MKN45
# [2] = tested on: PANC1
# [3] = tested on: SUM159
# [4] = tested on: T84
# 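Further: High-content imaging of ALDEFLUOR-stained cells with Hoechst-labelled nuclei in 384-well plates, triplicate wells, scored as Z-score against 0.1% DMSO vehicle, negative meaning fewer ALDHbr cells.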
SMILES,ALDHbr [1],ALDHbr [2],ALDHbr [3],ALDHbr [4]
CCCCCN(C)CCC(O)(P(=O)(O)O)P(=O)(O)O [Ibandronate sodium],0.697,1.27,1,0.925
COc1cc(NS(=O)(=O)c2ccc(N)cc2)ncn1 [Sulfamonomethoxine],0.766,1.01,0.983,0.971
CCCCNc1ccc(C(=O)OCCN(C)C)cc1,1.03,1.11,1.04,0.876
COc1nc(C)nc(Cl)c1NC1=NCCN1 [Moxonidine],1.07,0.937,0.971,1.02
CC(=O)NC[C@H]1CN(c2ccc(N3CCOCC3)c(F)c2)C(=O)O1 [Linezolid],0.954,0.631,0.929,0.994
CCOC(=O)OC(C)OC(=O)[C@@H]1N2C(=O)[C@@H](NC(=O)[C@H](N)c3ccccc3)[C@H]2SC1(C)C (some centres undefined) [Bacampicillin hydrochloride],1.06,0.876,0.951,0.991
CCOC(=O)c1ccc(OC(=O)CCCCCNC(=N)N)cc1 [Gabexate mesilate],0.899,0.966,0.874,0.994
C[C@@H]1C[C@H]2[C@@H]3C[C@H](F)C4=CC(=O)C=C[C@]4(C)[C@@]3(F)[C@@H](O)C[C@]2(C)[C@@]1(O)C(=O)COC(=O)C(C)(C)C [Flumethasone pivalate],1.07,0.59,1.26,0.969
CC(C)NC[C@H](O)COc1ccc(CC(N)=O)cc1 [(S)-(-)-Atenolol],0.975,0.978,1.07,0.829
CN1CCN(C2=Nc3ccccc3Oc3ccc(Cl)cc32)CC1 [Loxapine succinate],1.03,0.876,0.737,0.801
CC(C)(C#N)c1cc(Cn2cncn2)cc(C(C)(C)C#N)c1 [Anastrozole],1.08,0.989,1.34,1.09
C[C@@H]1C[C@H]2[C@@H]3CCC4=CC(=O)C=C[C@]4(C)[C@@]3(Cl)[C@@H](O)C[C@]2(C)[C@@]1(OC(=O)c1ccco1)C(=O)CCl [Mometasone furoate],0.816,0.601,1.48,0.586
CCCCCOC(=O)Nc1nc(=O)n([C@@H]2O[C@H](C)[C@@H](O)[C@H]2O)cc1F [Capecitabine],1.18,0.878,0.946,0.8
NCc1ccc(S(N)(=O)=O)cc1 [Mafenide hydrochloride],1.03,0.732,1.2,1.02
CCCCN1CCCCC1C(=O)Nc1c(C)cccc1C (centres undefined) [Bupivacaine hydrochloride],1.08,0.882,1.04,1.07
CCCN(CCC)CCc1cccc2c1CC(=O)N2 [Ropinirole hydrochloride],1.06,0.804,1.05,0.972
CC(C)NCC(O)COc1cccc2[nH]ccc12 (centres undefined) [Pindolol],0.982,0.87,1.37,0.885
CC(C)NC[C@@H](O)COc1ccc(CC(N)=O)cc1 [(R)-(+)-Atenolol],0.979,0.981,1.54,0.949
Cc1ccc(Cl)c(Nc2ccccc2C(=O)O)c1Cl [Meclofenamic acid sodium salt monohydrate],1.06,0.947,0.996,1.19
CC(C)(O/N=C(\C(=O)N[C@@H]1C(=O)N2C(C(=O)[O-])=C(C[n+]3ccccc3)CS[C@H]12)c1csc(N)n1)C(=O)O [Ceftazidime pentahydrate],1.02,0.896,0.846,1.02
CC=CC(=O)N(CC)c1ccccc1C [Crotamiton],0.94,1.07,1.27,1.08
CC(=O)SCC(Cc1ccccc1)C(=O)NCC(=O)OCc1ccccc1 (centres undefined) [Racecadotril],0.941,1.02,1.33,0.884
CCS(=O)(=O)CCn1c([N+](=O)[O-])cnc1C [Tinidazole],0.987,1.03,1.11,0.935
Cc1onc(-c2c(F)cccc2Cl)c1C(=O)N[C@@H]1C(=O)N2[C@@H]1SC(C)(C)[C@@H]2C(=O)O [Flucloxacillin sodium],1.33,1.11,0.821,0.964
CC1(C)O[C@@H]2C[C@H]3[C@@H]4C[C@H](F)C5=CC(=O)C=C[C@]5(C)[C@@]4(F)[C@@H](O)C[C@]3(C)[C@]2(C(=O)CO)O1 [Fluocinolone acetonide],0.897,0.563,1.12,1.02
CN(C)CC/C=C1/c2ccccc2COc2ccc(CC(=O)O)cc21 [Olopatadine hydrochloride],1.19,0.922,0.849,0.816
